{
  "source": "paper PMC9917443",
  "about": "(eLife, 2023)",
  "biological_target": "GB1a/2 receptors (Homo sapiens, UniProt O75899+Q9UBS5)",
  "sequence (Q9UBS5 15-961 limits assumed)": "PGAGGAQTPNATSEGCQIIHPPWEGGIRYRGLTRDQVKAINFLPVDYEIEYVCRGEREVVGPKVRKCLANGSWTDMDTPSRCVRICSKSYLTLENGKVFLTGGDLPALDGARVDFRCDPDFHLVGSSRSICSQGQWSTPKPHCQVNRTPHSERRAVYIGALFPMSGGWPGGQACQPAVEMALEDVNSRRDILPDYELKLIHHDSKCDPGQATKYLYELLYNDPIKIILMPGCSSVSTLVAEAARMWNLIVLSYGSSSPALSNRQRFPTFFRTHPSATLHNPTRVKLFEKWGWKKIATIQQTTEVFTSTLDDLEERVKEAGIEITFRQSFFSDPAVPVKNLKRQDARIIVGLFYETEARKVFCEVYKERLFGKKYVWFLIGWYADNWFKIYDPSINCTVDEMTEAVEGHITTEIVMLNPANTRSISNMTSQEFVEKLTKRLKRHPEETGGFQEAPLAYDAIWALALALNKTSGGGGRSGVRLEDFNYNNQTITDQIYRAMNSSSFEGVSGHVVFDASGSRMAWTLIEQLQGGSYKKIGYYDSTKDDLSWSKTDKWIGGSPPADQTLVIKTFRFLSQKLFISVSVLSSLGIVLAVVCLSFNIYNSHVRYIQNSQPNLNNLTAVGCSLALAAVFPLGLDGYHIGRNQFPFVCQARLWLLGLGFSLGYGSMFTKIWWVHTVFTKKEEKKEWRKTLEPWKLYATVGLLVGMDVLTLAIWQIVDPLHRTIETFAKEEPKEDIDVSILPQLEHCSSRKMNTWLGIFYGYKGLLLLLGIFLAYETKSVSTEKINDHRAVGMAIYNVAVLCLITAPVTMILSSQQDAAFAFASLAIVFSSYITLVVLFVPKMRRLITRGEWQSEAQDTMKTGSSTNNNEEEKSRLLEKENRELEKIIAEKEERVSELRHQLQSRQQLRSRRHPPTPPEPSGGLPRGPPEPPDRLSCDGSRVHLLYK",
  "sequence (O75899 42-941 partner)": "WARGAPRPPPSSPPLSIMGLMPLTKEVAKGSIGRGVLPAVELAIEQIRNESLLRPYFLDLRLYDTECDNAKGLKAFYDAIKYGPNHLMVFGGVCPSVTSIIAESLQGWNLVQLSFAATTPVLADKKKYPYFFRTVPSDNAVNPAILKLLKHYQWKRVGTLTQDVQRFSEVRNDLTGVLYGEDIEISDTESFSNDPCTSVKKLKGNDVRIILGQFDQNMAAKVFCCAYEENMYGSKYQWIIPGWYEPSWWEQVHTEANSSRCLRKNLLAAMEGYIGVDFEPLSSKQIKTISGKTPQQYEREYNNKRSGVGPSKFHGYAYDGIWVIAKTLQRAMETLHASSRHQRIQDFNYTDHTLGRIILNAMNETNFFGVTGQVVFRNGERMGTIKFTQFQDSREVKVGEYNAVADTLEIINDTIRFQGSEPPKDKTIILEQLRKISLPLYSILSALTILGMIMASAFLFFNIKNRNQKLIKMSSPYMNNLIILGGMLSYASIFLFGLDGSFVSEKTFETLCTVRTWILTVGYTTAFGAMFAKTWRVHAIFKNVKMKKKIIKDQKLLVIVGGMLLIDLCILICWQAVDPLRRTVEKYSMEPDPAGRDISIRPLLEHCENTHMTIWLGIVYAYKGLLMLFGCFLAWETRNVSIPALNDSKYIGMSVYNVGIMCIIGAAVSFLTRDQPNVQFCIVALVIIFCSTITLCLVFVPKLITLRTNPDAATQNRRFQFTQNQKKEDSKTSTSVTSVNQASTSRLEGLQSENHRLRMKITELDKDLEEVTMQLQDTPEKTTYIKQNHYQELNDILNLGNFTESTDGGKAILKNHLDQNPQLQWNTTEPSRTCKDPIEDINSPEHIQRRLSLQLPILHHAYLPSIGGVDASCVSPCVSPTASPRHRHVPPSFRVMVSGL",
  "assay": "SRE-luciferase accumulation assay (Gαqi/PLC) in HEK293T-Gαqi cells",
  "conditions": "GB1a/2 + APP, different curve for each data set; for LogEC50 of GABA in presence of peptide: X = Log [GABA] (M)",
  "data": [
    {"substance": "Ac-DDSDVWWGGADTDYADG-NH2 [APP17]", "values": [
      {"measurement": "LogEC50 of GABA in presence of peptide", "setting": "1μM peptide", "value": -6.504},
      {"measurement": "Top of GABA dose-response curve in presence of peptide", "setting": "1μM peptide", "value": 0.9903},
      {"measurement": "LogEC50 of GABA in presence of peptide", "setting": "10μM peptide", "value": -6.467}
    ]}
  ]
}
